Over roughly 81,000 sequences, “one-hybrid fitness for binding NBS DNA” has its median near -0.1; the highest 2% begin near 0.36. This is one part of the list.
B1: Caulobacter ParB omega fusion; a variant is named by its letters at X, in order, B8GW30 (parent)
chain: MESVVVGEPGMSEGRRGLGRGLSALLGEVDAAPAQAPGEQLGGSREAPIEILQRNPDQPRRTFREEDLEDLSNSIREKGVLQPILVRPSPDTAGEYQIVAGERAWRAAQRAGLKTVPIMVRELDDLAVLEIGIIENVQRADLNVLEEALSYKVLMEKFERTQENIAQTIGKSXSHVANXMRLLXLPDEVQSYLVSGELTAXHARAIAAAADPVALAKQIIEGGLSVRETEALARKAPNLSAGKSKGGRPPRVKDTDTQALESDLSSVLGLDVSIDHRGSTGTLTITYATLEQLDDLCNRLTRGI

Variants of: B1
Assay: one-hybrid fitness for binding NBS DNA (the Noc-binding site; scaled: cognate 1, non-cognate 0); higher = stronger binding
Conditions: with NBS DNA site
Outline: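 Pre- and post-selection plasmids were Illumina-sequenced, three replicate libraries were pooled, and any variant with under 10 reads was removed. The libraries were Caulobacter ParB with four specificity codons randomised, selected in E. coli USO through a HIS3 reporter whose site is 19 bp from the promoter. Cells grew 48 hours at 37°C on M9 without histidine, with 0.1 mM IPTG and 5 mM 3-AT. Fitness is the log change in variant-to-wild-type read ratio, rescaled against cognate and non-cognate.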

Row | Variant | one-hybrid fitness for binding NBS DNA
1 | RAQW | ≤ 0.2
2 | DYEV | ≤ 0.2
3 | KCAS | ≤ 0.2
4 | MRNY | ≤ 0.2
5 | MTTN | ≤ 0.2
6 | ESTT | ≤ 0.2
7 | WICC | ≤ 0.2
8 | YYNH | ≤ 0.2
9 | GMAS | ≤ 0.2
10 | WPKV | ≤ 0.2
11 | GPAL | ≤ 0.2
12 | SSLP | ≤ 0.2
13 | RKKW | ≤ 0.2
14 | SWFT | ≤ 0.2
15 | YWEG | ≤ 0.2
16 | RKTL | ≤ 0.2
17 | YDMR | ≤ 0.2
18 | PAHE | ≤ 0.2
19 | LMTR | ≤ 0.2
20 | TENL | ≤ 0.2
21 | VHTL | ≤ 0.2
22 | TPRV | ≤ 0.2
23 | HPDT | ≤ 0.2
24 | SVVM | ≤ 0.2

Row | Variant | one-hybrid fitness for binding NBS DNA
25 | CVQG | ≤ 0.2
26 | HYEG | ≤ 0.2
27 | SHKS | ≤ 0.2
28 | FAMS | ≤ 0.2
29 | RDIC | ≤ 0.2
30 | VVWS | ≤ 0.2
31 | QCYN | ≤ 0.2
32 | YFMY | ≤ 0.2
33 | RTDM | ≤ 0.2
34 | RDWT | ≤ 0.2
35 | RKMT | 0.587
36 | SNCL | ≤ 0.2
37 | SHHD | ≤ 0.2
38 | PPEC | ≤ 0.2
39 | QHDT | 0.344
40 | FSIC | ≤ 0.2
41 | HHYV | ≤ 0.2
42 | VDSE | ≤ 0.2
43 | QRLV | 0.331
44 | REAK | ≤ 0.2
45 | QAAK | ≤ 0.2
46 | YSVF | ≤ 0.2
47 | GYEN | ≤ 0.2
48 | GNFA | ≤ 0.2

Row | Variant | one-hybrid fitness for binding NBS DNA
49 | YGNG | ≤ 0.2
50 | APHK | ≤ 0.2
51 | WVEP | ≤ 0.2
52 | VCIT | ≤ 0.2
53 | CYNG | ≤ 0.2
54 | LFPS | ≤ 0.2
55 | IQKL | ≤ 0.2
56 | YPPN | ≤ 0.2
57 | PTKD | ≤ 0.2
58 | KVES | ≤ 0.2
59 | NLWT | ≤ 0.2
60 | QIRV | 0.285
61 | WIAI | ≤ 0.2
62 | LVPV | ≤ 0.2
63 | HRQT | ≤ 0.2
64 | HAPN | ≤ 0.2
65 | QMDS | ≤ 0.2
66 | KRPS | 0.228
67 | RIFC | ≤ 0.2
68 | YGCL | ≤ 0.2
69 | PKDA | ≤ 0.2
70 | NCFS | ≤ 0.2
71 | YCRA | ≤ 0.2
72 | NAAM | ≤ 0.2

Row | Variant | one-hybrid fitness for binding NBS DNA
73 | CDRV | ≤ 0.2
74 | WTHY | ≤ 0.2
75 | QHQI | ≤ 0.2
76 | QLDS | ≤ 0.2
77 | TYQT | ≤ 0.2
78 | HLNI | ≤ 0.2
79 | MLTS | ≤ 0.2
80 | TFTV | ≤ 0.2
81 | HMHA | ≤ 0.2
82 | HPES | ≤ 0.2
83 | FLRA | ≤ 0.2
84 | TGFR | ≤ 0.2
85 | PKLD | ≤ 0.2
86 | NYAH | ≤ 0.2
87 | LTIR | ≤ 0.2
88 | TTGI | ≤ 0.2
89 | EVML | ≤ 0.2
90 | DNKR | ≤ 0.2
91 | VNVV | ≤ 0.2
92 | PDNH | ≤ 0.2
93 | IRFW | ≤ 0.2
94 | QHGW | ≤ 0.2
95 | QHHI | ≤ 0.2
96 | GHVV | ≤ 0.2

Row | Variant | one-hybrid fitness for binding NBS DNA
97 | VACS | ≤ 0.2
98 | RAWA | ≤ 0.2
99 | AYLL | ≤ 0.2
100 | LCPK | ≤ 0.2
101 | FSKA | ≤ 0.2
102 | MRMW | ≤ 0.2
103 | PVRH | ≤ 0.2
104 | LRND | ≤ 0.2
105 | YYEW | ≤ 0.2
106 | SHGG | ≤ 0.2
107 | TERM | ≤ 0.2
108 | YTEG | ≤ 0.2
109 | ESPC | ≤ 0.2
110 | QGPA | ≤ 0.2
111 | WAGC | ≤ 0.2
112 | TKRV | ≤ 0.2
113 | QGSW | ≤ 0.2
114 | NYDT | ≤ 0.2
115 | FEVN | ≤ 0.2
116 | SYGL | ≤ 0.2
117 | DVSL | ≤ 0.2
118 | FSVL | ≤ 0.2
119 | GGIV | ≤ 0.2
120 | WIDG | ≤ 0.2

Row | Variant | one-hybrid fitness for binding NBS DNA
121 | SEST | ≤ 0.2
122 | ITSH | ≤ 0.2
123 | PHRE | ≤ 0.2
124 | YSLW | ≤ 0.2
125 | MHAS | ≤ 0.2
126 | EVKR | ≤ 0.2
127 | KYAR | ≤ 0.2
128 | RINH | ≤ 0.2
129 | RQMV | ≤ 0.2
130 | SKKK | ≤ 0.2
131 | SEIC | ≤ 0.2
132 | GTAQ | ≤ 0.2
133 | WKRA | ≤ 0.2
134 | ACKF | ≤ 0.2
135 | LTRG | ≤ 0.2
136 | HTRA | ≤ 0.2
137 | LMYS | ≤ 0.2
138 | VAST | ≤ 0.2
139 | RRTK | 0.228
140 | AACG | ≤ 0.2
141 | REWL | ≤ 0.2
142 | KLKS | ≤ 0.2
143 | EGLY | ≤ 0.2
144 | RIWY | ≤ 0.2

Row | Variant | one-hybrid fitness for binding NBS DNA
145 | GALF | ≤ 0.2
146 | QHWW | ≤ 0.2
147 | ETTR | ≤ 0.2
148 | AYLC | ≤ 0.2
149 | DYYT | ≤ 0.2
150 | ARWC | ≤ 0.2
151 | QKTK | ≤ 0.2
152 | GEYR | ≤ 0.2
153 | SRKR | 0.34
154 | ALCG | ≤ 0.2
155 | WNWG | ≤ 0.2
156 | MVCG | ≤ 0.2
157 | NVGR | ≤ 0.2
158 | RSHI | ≤ 0.2
159 | ENTL | ≤ 0.2
160 | SQTP | ≤ 0.2
161 | NNDI | ≤ 0.2
162 | RVVN | ≤ 0.2
163 | LFSP | ≤ 0.2
164 | VLQK | ≤ 0.2
165 | TDAE | ≤ 0.2
166 | PAMD | ≤ 0.2
167 | RVGT | 0.491
168 | HCGT | ≤ 0.2

Row | Variant | one-hybrid fitness for binding NBS DNA
169 | DKLF | ≤ 0.2
170 | TAYL | ≤ 0.2
171 | PMVC | ≤ 0.2
172 | STNN | ≤ 0.2
173 | NTPK | ≤ 0.2
174 | DQPF | ≤ 0.2
175 | PPVF | ≤ 0.2
176 | YQMR | ≤ 0.2
177 | ESHR | ≤ 0.2
178 | CIRG | ≤ 0.2
179 | ALMF | ≤ 0.2
180 | NMAY | ≤ 0.2
181 | CSLV | ≤ 0.2
182 | LHLC | ≤ 0.2
183 | SSTD | ≤ 0.2
184 | VKHA | ≤ 0.2
185 | LAHR | ≤ 0.2
186 | MKDF | ≤ 0.2
187 | VNNT | ≤ 0.2
188 | GLAG | ≤ 0.2
189 | GPDD | ≤ 0.2
190 | NRKH | ≤ 0.2
191 | NRTK | ≤ 0.2
192 | KTHA | ≤ 0.2

Row | Variant | one-hybrid fitness for binding NBS DNA
193 | SGFT | ≤ 0.2
194 | WTWT | ≤ 0.2
195 | RADL | ≤ 0.2
196 | RRIL | ≤ 0.2
197 | WMDS | ≤ 0.2
198 | WHVG | ≤ 0.2
199 | VFSM | ≤ 0.2
200 | PAPA | ≤ 0.2
201 | PGTS | ≤ 0.2
202 | ESGG | ≤ 0.2
203 | RYDG | ≤ 0.2
204 | HKKA | ≤ 0.2
205 | DTLS | ≤ 0.2
206 | RHWI | ≤ 0.2
207 | FGCS | ≤ 0.2
208 | WEPV | ≤ 0.2
209 | QEDV | ≤ 0.2
210 | QAQV | ≤ 0.2
211 | VCFS | ≤ 0.2
212 | WNSC | ≤ 0.2
213 | HCTR | ≤ 0.2
214 | GTRA | ≤ 0.2
215 | CARK | ≤ 0.2
216 | VHVR | ≤ 0.2

Row | Variant | one-hybrid fitness for binding NBS DNA
217 | NLKT | ≤ 0.2
218 | HRHE | ≤ 0.2
219 | PTYG | ≤ 0.2
220 | PAWK | ≤ 0.2
221 | SDVC | ≤ 0.2
222 | SSGC | ≤ 0.2
223 | RYHI | ≤ 0.2
224 | EPTM | ≤ 0.2
225 | RICY | ≤ 0.2
226 | SMLY | ≤ 0.2
227 | GIHC | ≤ 0.2
228 | VKRW | ≤ 0.2
229 | YEKR | ≤ 0.2
230 | TGVI | ≤ 0.2
231 | RSKS | 0.567
232 | RYHD | ≤ 0.2
233 | NREC | ≤ 0.2
234 | PSVY | ≤ 0.2
235 | FHAR | ≤ 0.2
236 | EARK | ≤ 0.2
237 | PIHP | ≤ 0.2
238 | GMKI | ≤ 0.2
239 | MFWS | ≤ 0.2
240 | NCAW | ≤ 0.2

Row | Variant | one-hybrid fitness for binding NBS DNA
241 | SFHR | ≤ 0.2
242 | YTHE | ≤ 0.2
243 | RPKF | ≤ 0.2
244 | HLYV | ≤ 0.2
245 | GFWM | ≤ 0.2
246 | PPFR | ≤ 0.2
247 | ANHV | ≤ 0.2
248 | GLAM | ≤ 0.2
249 | LYAW | ≤ 0.2
250 | RAHQ | ≤ 0.2
251 | GHPN | ≤ 0.2
252 | MGLS | ≤ 0.2
253 | LWVR | ≤ 0.2
254 | TAYT | ≤ 0.2
255 | AVGL | ≤ 0.2
256 | APNG | ≤ 0.2
257 | HFQS | ≤ 0.2
258 | FQSA | ≤ 0.2
259 | GGAT | ≤ 0.2
260 | NLAP | ≤ 0.2
261 | RGIQ | ≤ 0.2
262 | PFMM | ≤ 0.2
263 | WQRY | ≤ 0.2
264 | TELG | ≤ 0.2

Row | Variant | one-hybrid fitness for binding NBS DNA
265 | WPNH | ≤ 0.2
266 | PHDM | ≤ 0.2
267 | QEHL | ≤ 0.2
268 | HRQM | ≤ 0.2
269 | SYDV | ≤ 0.2
270 | KLQS | ≤ 0.2
271 | NVCC | ≤ 0.2
272 | RYEN | ≤ 0.2
273 | MAPW | ≤ 0.2
274 | DETG | ≤ 0.2
275 | RQFA | ≤ 0.2
276 | STRS | ≤ 0.2
277 | HIHC | ≤ 0.2
278 | FSSG | ≤ 0.2
279 | MSTM | ≤ 0.2
280 | GKRV | ≤ 0.2
281 | HMPG | ≤ 0.2
282 | TMKW | ≤ 0.2
283 | HVSR | ≤ 0.2
284 | EYTG | ≤ 0.2
285 | HRQY | ≤ 0.2
286 | HISE | ≤ 0.2
287 | NYWT | ≤ 0.2
288 | NTTR | ≤ 0.2

Row | Variant | one-hybrid fitness for binding NBS DNA
289 | TAGK | ≤ 0.2
290 | CPIT | ≤ 0.2
291 | AVRM | ≤ 0.2
292 | AIAS | ≤ 0.2
293 | CNGR | ≤ 0.2
294 | EHDS | ≤ 0.2
295 | VTNM | ≤ 0.2
296 | IRMF | ≤ 0.2
297 | QRDA | 0.394
298 | NLES | ≤ 0.2
299 | TSLP | ≤ 0.2
300 | ADNR | ≤ 0.2
301 | RPYE | ≤ 0.2
302 | VLAT | ≤ 0.2
303 | RQLH | ≤ 0.2
304 | EQNG | ≤ 0.2
305 | FPPW | ≤ 0.2
306 | HPRM | ≤ 0.2
